# Laboratory results reported in the supplement of paper PMC3724861.
# Some of the results follow.
# Test system: T1, Caupolican (Caup) homeodomain DNA-binding domain
# T1 sequence: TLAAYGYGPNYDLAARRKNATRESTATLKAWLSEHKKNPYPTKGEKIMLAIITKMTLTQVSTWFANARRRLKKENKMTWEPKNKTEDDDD
# Assay: PBM E-score (8-mer, recovered from the published 9-mer minima) (E-score (dimensionless, -0.5 to 0.5)); Drosophila protein; higher = stronger relative binding preference, active = 0.31 or more
# How it was run: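 Caup's homeodomain DNA-binding domain (residues 214-303) was produced by in vitro transcription and translation and applied at 100 nM to custom-designed protein binding microarrays. Each value is an enrichment score giving relative binding preference for a short DNA word; higher means stronger. Published 9-mer scores were the minimum of their two constituent 8-mer scores, and the 8-mer values were recovered from those minima. A cutoff of 0.31 marks candidate binding sequences.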
row,Sequence,PBM E-score
1,TACTGATA,≥ 0.222
2,AGGGATAG,inactive: -0.0587
3,AGATCGGC,inactive: -0.152
4,CTAGTTCA,inactive: 0.12
5,CAAGCTGG,inactive: -0.105
6,AAACCGGG,inactive: -0.124
7,CCAACGCC,inactive: -0.126
8,ATTGCAAC,inactive: 0.0647
9,TCATTCGA,inactive: 0.0978
10,TAGATAGA,inactive: 0.0936
11,AACCCCCG,inactive: -0.284
12,CTGGAAGA,inactive: -0.104
13,ATTTTTCC,inactive: 0.0668
14,AACTGCGA,inactive: -0.123
15,AACCCCAG,inactive: -0.152
16,AGAAAGAA,inactive: -0.048
17,GCTGCTGA,inactive: -0.0472
18,AGGTGCGA,inactive: -0.102
19,AACGCAAT,inactive: 0.0579
20,AAGCATCA,inactive: 0.0394
21,ACCACTTC,inactive: 0.0148
22,ACTTGCGC,inactive: 0.0111
23,CCATTCTC,inactive: -0.115
24,AGGGAAGG,inactive: -0.102
25,TAAATCTA,inactive: 0.0766
26,AGCTGCGC,inactive: -0.161

row,Sequence,PBM E-score
1,ATAGTACA,active: 0.343
2,CGGTGTAG,inactive: 0.146
3,CAAAATCA,inactive: 0.142
4,GCTCCCGA,inactive: -0.164
5,CGAGGTCA,inactive: -0.0898
6,AAGAGTAC,inactive: 0.0434
7,CCGCGCCC,inactive: -0.312
8,GGCCCGGA,inactive: -0.266
9,AATAGAGC,inactive: 0.0205
10,GTCTTGGA,inactive: 0.0411
11,CGTATGGC,inactive: 0.0196
12,TCTCAAGA,inactive: -0.0313
13,ATATGAAT,inactive: 0.107
14,CCCGTTAG,inactive: -0.204
15,AGGCCGGC,inactive: -0.263
16,TATTTTAA,≥ 0.146
17,CCCATCAG,inactive: -0.114
18,CGGCATAG,inactive: -0.0455
19,ATTACGAA,inactive: 0.115
20,CCCGACAG,inactive: -0.0633
21,ACCCCAGC,≥ -0.13
22,ACGCAAAC,inactive: 0.0167
23,CGCGTTAG,inactive: -0.0785
24,ACCTATGC,inactive: -0.00694
25,ACGTCTTC,inactive: -0.0311
26,CCCAGCCA,inactive: -0.16

row,Sequence,PBM E-score
1,CCTCGGTA,inactive: -0.132
2,ATGTCTAG,inactive: 0.269
3,ATACGTGA,inactive: 0.14
4,GATGGTGC,inactive: -0.204
5,AGGTGCTA,≥ -0.00473
6,ATGAACTA,≥ 0.136
7,CATCATCG,inactive: 0.029
8,CCACCTAG,inactive: -0.0961
9,ACCAACTA,inactive: 0.102
10,TCCGGAGA,inactive: -0.0875
11,AAGACCGC,inactive: -0.0645
12,ATTTACGA,inactive: 0.143
13,GAGTGATC,≥ 0.157
14,ATCTGACC,inactive: 0.0104
15,AGCGTGAA,inactive: 0.0332
16,AGGTCCTC,inactive: -0.157
17,GCTGGGCA,inactive: -0.162
18,TAGGCAGA,inactive: -0.0183
19,ACATGGGC,inactive: 0.247
20,CGCTGTAC,inactive: 0.126
21,CGCCGTCA,inactive: -0.117
22,TCCGCTAA,inactive: -0.103
23,ACCCTTCT,inactive: -0.0981
24,ATGACTTA,inactive: 0.0163
25,AACGTAGC,inactive: 0.103
26,GCTGCTCC,inactive: -0.151

row,Sequence,PBM E-score
1,GAGCGCGA,inactive: -0.0675
2,CACGGAAG,inactive: -0.0147
3,CGCGCGCG,inactive: -0.227
4,ATACTCGA,inactive: 0.048
5,CTGTAGAC,inactive: 0.0856
6,TTACACAA,active: 0.311
7,CTGGATTA,inactive: 0.0647
8,TCGCTGCA,inactive: -0.101
9,CTGTAGCA,inactive: 0.126
10,AATCCATC,inactive: 0.0793
11,GCTTAGAA,inactive: 0.0175
12,GGTAGGGA,inactive: -0.0771
13,AAGGCCGG,inactive: -0.243
14,TCGTTACA,inactive: 0.292
15,CCTTAGTC,inactive: -0.0768
16,AGCAACTA,≥ 0.177
17,GAGGCGAC,inactive: -0.182
18,ATCTTAAT,≥ 0.1
19,CTGGTTAC,inactive: 0.149
20,GGCTCGGA,inactive: -0.198
21,ATTTGGGG,inactive: -0.0657
22,CAAGCGAA,inactive: 0.0164
23,CAAAGTTA,inactive: 0.108
24,CGCAACAA,inactive: 0.258
25,GCTTCTAA,inactive: -0.0352
26,CCCATATC,inactive: 0.00193

row,Sequence,PBM E-score
1,ATTTCCAG,inactive: 0.0334
2,CCCTTAAA,inactive: -0.0545
3,AACCGGCA,inactive: -0.0519
4,CCATGCAG,inactive: -0.0673
5,ATCGCGGC,inactive: -0.165
6,CACTCAAG,inactive: 0.0399
7,AGGGCAAC,inactive: -0.0847
8,ACATTTCT,inactive: 0.17
9,GCGCCTCA,inactive: -0.22
10,CGAACGCA,≥ 0.0319
11,ATTGCTTC,inactive: 0.0988
12,AAAATAAG,inactive: 0.027
13,CCTCCATC,inactive: -0.178
14,CAGGTTGA,inactive: 0.0252
15,CACATAGG,inactive: 0.0608
16,AAAACAAC,inactive: 0.214
17,CCGTCCAA,inactive: -0.0826
18,ACCAACAC,inactive: 0.175
19,CGAGTACA,inactive: 0.205
20,AGGATCGC,inactive: -0.00783
21,GCAGGCAC,inactive: -0.173
22,ACGACCGT,inactive: -0.0851
23,ACAGGGGT,inactive: 0.0957
24,AGCAGCAA,inactive: 0.0254
25,AGCGTTTG,inactive: -0.163
26,GGGCGGGA,≥ -0.151

row,Sequence,PBM E-score
1,CGGAGTGC,inactive: -0.159
2,ACTCTTTG,inactive: 0.0309
3,TCGGGCCA,inactive: -0.247
4,AACTCACA,inactive: 0.0792
5,CCAACCAC,inactive: 0.0693
6,CTAAGAAA,inactive: 0.0699
7,AGCTGCAC,inactive: -0.0853
8,GACTCCAC,inactive: -0.126
9,ACTACCCT,inactive: 0.0145
10,ACCCTTAA,inactive: -0.0465
11,CCTCTGTC,inactive: -0.0145
12,CACGTAAA,inactive: 0.0877
13,GACGTCAC,inactive: 0.0133
14,AAAAGGAT,≥ 0.105
15,ACCATAAC,inactive: 0.0778
16,AGAAACAC,inactive: 0.188
17,CCCGCTAC,inactive: -0.0664
18,ACTTACAT,active: 0.339
19,AGGACCAA,inactive: -0.108
20,CATAAAAG,inactive: 0.137
21,CCACCTAC,inactive: -0.0168
22,AACTCCAA,≥ 0.0284
23,CAACAAGA,inactive: 0.241
24,AGGAGTAG,inactive: -0.0444
25,ACATCGAA,inactive: 0.233
26,AGATAGGA,inactive: -0.0128

row,Sequence,PBM E-score
1,CGTTTCTC,inactive: -0.0945
2,GCTGTCCC,inactive: -0.0796
3,CGCCCCAA,inactive: -0.164
4,GAGTTCCA,inactive: -0.0386
5,AGCGTGCC,inactive: -0.158
6,CTCAGTAC,inactive: 0.0603
7,ACTGGCTA,inactive: -0.0492
8,CACAATTA,inactive: 0.104
9,ACACGGAC,inactive: 0.258
10,GACCTTCC,inactive: -0.168
11,GACCGGTC,≥ -0.0163
12,GTATGTAA,active: 0.369
13,AGGCTCCA,inactive: -0.142
14,CATATTAG,inactive: 0.149
15,CCCGTAAA,inactive: -0.0711
16,GGCTTGTA,active: 0.312
17,ACATGGGA,inactive: 0.276
18,GAAGGGGA,inactive: -0.239
19,ATTACTAG,inactive: 0.175
20,GCGGCCAA,inactive: -0.188
21,ATTCCTGG,inactive: -0.0689
22,ACGTTAAT,≥ 0.117
23,CACCGAAC,inactive: 0.0165
24,CCCCGTTC,inactive: -0.171
25,AACCGTAC,inactive: 0.0384
26,CGTAGTTA,inactive: 0.157

row,Sequence,PBM E-score
1,ATCGGGAA,inactive: -0.0208
2,CACGCGTG,inactive: -0.00038
3,CCGATCAG,inactive: -0.0191
4,TACCCAGA,≥ 0.0335
5,AGCGCACA,inactive: -0.0389
6,GTAATCAC,inactive: 0.205
7,ACCCACCG,inactive: -0.155
8,CCGCTCCA,inactive: -0.193
9,GATAAGCC,inactive: -0.0964
10,GAGCCGAA,inactive: -0.0974
11,ACTGACAC,inactive: 0.176
12,AAGGGAAT,inactive: -0.0459
13,ATTCCACC,≥ 0.0463
14,CGATCCAC,≥ 0.0604
15,ATGCAGGC,inactive: -0.00763
16,AAAGAGGC,inactive: -0.0651
17,CAAGGCAG,inactive: -0.0318
18,AGGCGTGA,inactive: -0.0652
19,CCTCAAGG,inactive: -0.169
20,TGGCGTAA,inactive: -0.0043
21,CGTATCGC,inactive: -0.00104
22,CGCACTAA,inactive: -0.00162
23,ACGAGGAC,inactive: 0.0691
24,CGTAATAA,inactive: 0.147
25,TACAGCCA,inactive: 0.0499
26,TTCCACAA,inactive: 0.0524

row,Sequence,PBM E-score
1,CTCCTCTC,inactive: -0.2
2,GCCCCCAC,inactive: -0.336
3,ATCGAAGA,inactive: 0.0597
4,CGCATTGC,inactive: 0.0279
5,ATGCCGTA,inactive: 0.022
6,CTGAACGA,inactive: 0.0763
7,CACGCCTG,inactive: -0.0517
8,AAGTACCG,inactive: 0.0956
9,AGTAAGCG,inactive: -0.0451
10,AAGTTCTC,inactive: -0.0194
11,CCACCGTC,inactive: -0.267
12,TATGCTAA,inactive: 0.122
13,AGACAGCC,inactive: -0.0905
14,TATACGGA,inactive: 0.0472
15,CCCTTTAA,inactive: -0.0864
16,GCCTTACA,inactive: 0.108
17,CGGATCAC,inactive: 0.00076
18,CCATCCGC,inactive: -0.078
